The source of these data is paper PMC7819943, “Rice protein-binding microarrays: a tool to detect cis-acting elements near promoter regions in rice”.

The other results are listed elsewhere or left out.

The assay deals with T1, OsWOX13 (Oryza sativa, UniProt Q5QMM3 1-267).
T1 sequence: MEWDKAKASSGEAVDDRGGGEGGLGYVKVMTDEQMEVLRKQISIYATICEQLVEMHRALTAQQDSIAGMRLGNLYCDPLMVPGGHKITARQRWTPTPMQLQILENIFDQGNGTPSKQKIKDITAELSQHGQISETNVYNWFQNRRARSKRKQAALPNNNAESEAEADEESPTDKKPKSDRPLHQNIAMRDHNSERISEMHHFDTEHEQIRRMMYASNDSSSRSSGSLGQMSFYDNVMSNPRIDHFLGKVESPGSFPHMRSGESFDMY
The assay is described as follows: protein-binding microarray (RPBM); PBS, 2% BSA, 51.3 ng/ul salmon testes DNA, 50 uM zinc acetate, 200 nM TF, 25 C, 1 h; high values mean tight binding. The conditions noted are these: protein: recombinant; tags: N-terminal polyhistidine and DsRed monomer fusion (pET32a); label: CyDye5-dUTP incorporated in the synthesized complementary strand; 3' TTTTT single-stranded linker to array surface; dsDNA, one strand shown. In short, it runs like this: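 For the binding signal, per-feature fluorescence intensity was read in arbitrary units on an Axon 4000B scanner. Before scanning, a 2% BSA-blocked custom Agilent array made double-stranded with Cy5-dUTP was washed after 1 h at 25 °C with 200 nM protein and 50 µM zinc acetate. The proteins were Ni–NTA-purified transcription factors with N-terminal polyhistidine and DsRed fusions, expressed in E. coli BL21-CodonPlus.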
“ATCTCAAATTTTGCAAATTTATAATGGTATGGTTCCATCTCGGAGTCACCTAGTGCAG”: the binding signal is 9580 fluorescence intensity (a.u.). Then “CCATTACGTGATCACAGATTGATCAAGAAATGCTTGACGACGGAGTCACCTAGTGCAG”, with 19600 fluorescence intensity (a.u.). Then “ATTGATGATTGAAATTTGCTGTGCAAATCGAGAACTGAAGCGGAGTCACCTAGTGCAG”, with 53500 fluorescence intensity (a.u.).

Consider “TGCCTAATCAATCCATCAAAATTTCTCGACTTGCCTGAGACGGAGTCACCTAGTGCAG”, for which the binding signal is 18000 fluorescence intensity (a.u.). Next, “TATCGATCGATTGATTGCTATAGCTAGGTCAAATCGATCGCGGAGTCACCTAGTGCAG”: 28100 fluorescence intensity (a.u.). Next, “AATGATTAACGATGTGGAGTATGTGGATAATATTAGGCAACGGAGTCACCTAGTGCAG”: 29000 fluorescence intensity (a.u.).

For the sequence “TTGGATATTAGTAGTAGATTGGCCAACATCACCATGTCAACGGAGTCACCTAGTGCAG”, the binding signal was 6380 fluorescence intensity (a.u.). Then “GCCACTAAATTAATCCGGTGATTGATCATGTGTGGAAGCACGGAGTCACCTAGTGCAG”, with 54200 fluorescence intensity (a.u.); and “TAAAATTAAATTTAAGTTATCATAAATTTAAGGTGAAACGCGGAGTCACCTAGTGCAG”, with 11100 fluorescence intensity (a.u.). Next, “GTCCGGCATGATTGATCGGAGTGGTCGGCCCGAGCCACGTCGGAGTCACCTAGTGCAG”: 24300 fluorescence intensity (a.u.); “CGAACAGATTGATTCGCTTCGATTCGAGGGAGGAGGGGAGCGGAGTCACCTAGTGCAG”: 15400 fluorescence intensity (a.u.); “ATATTTATGTAATTATTAGTTGTAGATGACAGGTATAGTACGGAGTCACCTAGTGCAG”: 4700 fluorescence intensity (a.u.). Next, “GATCCTAATTACGCCAGCTTACCATGTCTGCAGAGAAAACCGGAGTCACCTAGTGCAG”: 5580 fluorescence intensity (a.u.); “GGAAGATTGAGACGAGGCAGATTGTGGTGGAGGAGACTAGCGGAGTCACCTAGTGCAG”: 21500 fluorescence intensity (a.u.); “CTACCTGGATTGGATTGGATACACAGAATTCTAGTTAGAACGGAGTCACCTAGTGCAG”: 8770 fluorescence intensity (a.u.). Consider “ACATGTAATTGAATAAATATTATTGGTCAAAGTTTGAGAACGGAGTCACCTAGTGCAG”, for which the binding signal was 26300 fluorescence intensity (a.u.). Next, “AAATAATTAAATAACATAAGAAAGGAACAGCTTACCTAATCGGAGTCACCTAGTGCAG”: 20400 fluorescence intensity (a.u.); “ATAATTCTAAAATATTTAATTTAAATCCTACAATACGATACGGAGTCACCTAGTGCAG”: 3820 fluorescence intensity (a.u.); “TCCCAAATTGAAATTATATGAATTTTATAGAACTAGATGACGGAGTCACCTAGTGCAG”: 25800 fluorescence intensity (a.u.). Next, “AGCATAATTTTCGTACTGTACCATTTTGCTTGGGAACGAACGGAGTCACCTAGTGCAG”: 3660 fluorescence intensity (a.u.); “TGAAACTAAATTTAGAAGTTGTAACTCTAATAAATAGGTACGGAGTCACCTAGTGCAG”: 9440 fluorescence intensity (a.u.). As for “AGAAAATAAATTTGGAAACAGCTCGTTCGCCGGGTCATGTCGGAGTCACCTAGTGCAG”, the binding signal was 4310 fluorescence intensity (a.u.).

Turning to “CCTTAACTTGTCATCAAATTACAAAATCGTCCTCCAACCACGGAGTCACCTAGTGCAG”, the binding signal was 8890 fluorescence intensity (a.u.). Then “TTGCACTGATTTTGTAACTTAAGGGATACGTCGTATCCGGCGGAGTCACCTAGTGCAG”, with 6500 fluorescence intensity (a.u.); and “CTAAATTTAGAATTCGATGATAATCCATGCAACTACTTCTCGGAGTCACCTAGTGCAG”, with 15600 fluorescence intensity (a.u.). On to “AGCTCAATCACAAATTAGTAGTGAGGCCCACATGTAAGTGCGGAGTCACCTAGTGCAG”, for which the binding signal is 26600 fluorescence intensity (a.u.).

For the sequence “ATTTAGATAAATTGATTATTTCACAAAATTAACTCAATAACGGAGTCACCTAGTGCAG”, the binding signal is 21800 fluorescence intensity (a.u.). Take “ATGTTTGTAATTATGCATATTTTGTAGTTTGCTAATATTCCGGAGTCACCTAGTGCAG”: the binding signal is 7960 fluorescence intensity (a.u.). Next, “TAAACTCCCTATCAATTTCCATCACCTCTACCAAACAAGACGGAGTCACCTAGTGCAG”: 5540 fluorescence intensity (a.u.). Next, “ATTAAAACTTAATTAAATATACTAATAGCTTTCTCATTTTCGGAGTCACCTAGTGCAG”: 7350 fluorescence intensity (a.u.). Then “ATGACTGGAGATGGAGTTAATGACGCCCCTGCGCTAAAGCCGGAGTCACCTAGTGCAG”, with 4770 fluorescence intensity (a.u.); and “CGGTGATAGAGAATTACCCGGTGTTTTAGAGGGATACCACCGGAGTCACCTAGTGCAG”, with 18900 fluorescence intensity (a.u.). In the case of “TTCTCTGCTCGAAATTGATTCTTGGATAATGATGGACCGACGGAGTCACCTAGTGCAG”, the binding signal was 4850 fluorescence intensity (a.u.). For “ATAAATTGTTATGTTTTAACAACTCTAAAATAAGTTCCATCGGAGTCACCTAGTGCAG”, the binding signal is 12400 fluorescence intensity (a.u.).

As to “AGATAATTTCATAACATAAAACAGAGTAATATTCTAGAGTCGGAGTCACCTAGTGCAG”, the binding signal is 10900 fluorescence intensity (a.u.). Then “CTAAATTTAGCTCCAGACGTTAGGTCTAGAATTTAGTTGTCGGAGTCACCTAGTGCAG”, with 4460 fluorescence intensity (a.u.); and “AAAATAATTTATGAATAAAACTTTTATATATGTGTTCTTACGGAGTCACCTAGTGCAG”, with 21400 fluorescence intensity (a.u.); and “CATTATTTGCCTAAATGATGATCAAACATGGATGAAGGAGCGGAGTCACCTAGTGCAG”, with 4310 fluorescence intensity (a.u.).

For “TCGCGTGGTTGATTGGCGGCTTCAGGCCTTGTTCGGTTGGCGGAGTCACCTAGTGCAG”, the binding signal is 27300 fluorescence intensity (a.u.). Then “ATGTATTAATTTGCCACTTCCTTTTACTTGGTAAGTGGAGCGGAGTCACCTAGTGCAG”, with 14100 fluorescence intensity (a.u.). Then “ACACTGTTAAATTAAGTCATTCAAAATATATCTCTTCAAACGGAGTCACCTAGTGCAG”, with 3380 fluorescence intensity (a.u.); and “TTTTATAATATGTAATCACAGACAGTTCTAAGACCCATCTCGGAGTCACCTAGTGCAG”, with 4590 fluorescence intensity (a.u.). Next, “GGAAAACAATTAGTATCTGATTAAACTACATCTGAATCTGCGGAGTCACCTAGTGCAG”: 14500 fluorescence intensity (a.u.). “TTCCGCTGCTTAGATCTTTATGATTGAGAGGAACTATCTACGGAGTCACCTAGTGCAG”: the binding signal was 3420 fluorescence intensity (a.u.). Next, “TTCAATTAATATCCAGTAACCAGTTTGATCTGCTACTCCCCGGAGTCACCTAGTGCAG”: 12200 fluorescence intensity (a.u.); “GATCCAATCATGAGGGAGTGAGATCGAGCGATTGATTAGGCGGAGTCACCTAGTGCAG”: 18900 fluorescence intensity (a.u.); “CCGCCTTGACTGGATTTGCTGTCATTTCCAGAACTAGTCACGGAGTCACCTAGTGCAG”: 17400 fluorescence intensity (a.u.). Next, “TTTGTAATAATTAAAACTCAATCAATAATACGTTAATACTCGGAGTCACCTAGTGCAG”: 13000 fluorescence intensity (a.u.).

“TTGAGAGTTATTCATGATTTATATTCCCAAGGTTTGACTTCGGAGTCACCTAGTGCAG”: the binding signal is 3500 fluorescence intensity (a.u.). Then “CTAAATTTGTACTTGTAAGAAAATTTCTCAGTACAAAATCCGGAGTCACCTAGTGCAG”, with 5240 fluorescence intensity (a.u.); and “TCATCCTCAATCGTCATTGATAGGTGGGCCACTAGTCCAACGGAGTCACCTAGTGCAG”, with 3640 fluorescence intensity (a.u.). Then “TCGTTTTAATTTCAATTAAACTTATAATTTTGGCGTGACACGGAGTCACCTAGTGCAG”, with 35500 fluorescence intensity (a.u.); and “TTATTTTATCCAATCAGTTGTGCTTAGACATTTCCTCCAACGGAGTCACCTAGTGCAG”, with 6280 fluorescence intensity (a.u.). Next, “AGCAAACCAATCATGCATCATTACGCGTTAGTCAATCTCTCGGAGTCACCTAGTGCAG”: 19400 fluorescence intensity (a.u.).
